The list shows a part of the results. At the low end of the ranking, values are background and their order means little. The protein was read in a cell extract, so binding may be indirect.
What follows are sequences tested against T1, HNF4alpha8 (COS-7 nuclear extract) (UniProt P41235-5) (assay: protein-binding microarray). Settings: COS-7 nuclear extract on double-stranded Agilent 4x180k PBM; binding buffer, salt, pH and temperature not given; high values mean tight binding; double strand, one strand shown; sequences stand for … in …GCCTAGGGAGATTAGAGTATCGGTCGA.
T1 sequence: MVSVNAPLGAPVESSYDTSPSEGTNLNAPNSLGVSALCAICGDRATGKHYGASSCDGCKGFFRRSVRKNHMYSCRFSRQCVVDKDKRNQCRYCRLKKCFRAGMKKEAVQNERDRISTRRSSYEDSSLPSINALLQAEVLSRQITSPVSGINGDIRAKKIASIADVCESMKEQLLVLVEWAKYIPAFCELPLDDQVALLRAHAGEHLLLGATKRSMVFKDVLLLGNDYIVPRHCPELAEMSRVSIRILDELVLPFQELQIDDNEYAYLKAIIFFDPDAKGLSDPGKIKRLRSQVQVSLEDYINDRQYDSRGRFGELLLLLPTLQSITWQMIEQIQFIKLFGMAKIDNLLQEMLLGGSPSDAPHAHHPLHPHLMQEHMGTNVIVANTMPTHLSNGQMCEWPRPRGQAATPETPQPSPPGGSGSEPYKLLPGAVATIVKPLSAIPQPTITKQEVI
Sequence TTACAGTGTGAATCTCCAACAAGGCAGGAG has a binding signal (log2 normalized intensity) of -0.531.
Sequence TGGCTGCTGCTCTCAACTTTCCCTCAGTTC has a binding signal (log2 normalized intensity) of -1.06.
TCTTCCCCTCCTTCAGGTCAAGAGGGCCTC gave a binding signal (log2 normalized intensity) of 2.33.
TTTCCAGCTTTGATAGTCTGCTACCATCAG showed a binding signal (log2 normalized intensity) of -1.24.
With TTCAAACACAGGATTGAACCTCTGGAATTC the binding signal (log2 normalized intensity) was 2.42.
With AAGGACTGAGATAAGAGAAGGGGTCAGGTA the binding signal (log2 normalized intensity) was 2.22.
GCCCTCAGGGAGCTCCAGCACTGGGGGACC showed a binding signal (log2 normalized intensity) of -1.35.
ATCATCACGGTGGACATTGTCCAAGGGCTG was tested, and the binding signal (log2 normalized intensity) was 1.84.
In the case of AAGTCCATCTGGGCAAGGTGTCAACCTTCA, the binding signal (log2 normalized intensity) is reported as 1.01.
In the case of AAAGGTCATATCCAAAATATTTGCAGTGAG, the binding signal (log2 normalized intensity) is reported as 2.09.
Work on CCCAATGCAGTACTATGCAATAACCAGGGA yielded a binding signal (log2 normalized intensity) of -1.35.
Sequence ACAGTTCGAACAGTTGGCCACCTTTGGCCG has a binding signal (log2 normalized intensity) of 4.84.
For TAACTGAAAGTCATGCTGAAGTACAGATTC, the binding signal (log2 normalized intensity) was 0.371.
Work on AATCTTCAGCTGCCTTTTGCCAGGCTACAG yielded a binding signal (log2 normalized intensity) of -1.28.
In the case of CAAGATTTGGTGTTACCTTTGGACTGTCCT, the binding signal (log2 normalized intensity) is reported as 5.22.
In the case of TCCTACAAGGGAGATAAACTTTATCTCCCT, the binding signal (log2 normalized intensity) is reported as -1.19.
AAGGTAAGTGACCCTGGTCTTTGCCCTTTC was tested, and the binding signal (log2 normalized intensity) was 5.35.
Work on GATGATCAGTAAGGAGAGGGGGCGGGGAGA yielded a binding signal (log2 normalized intensity) of -1.32.
With TACTCAATAACCACATGAATACACATAATG the binding signal (log2 normalized intensity) was -1.46.
For CAATCTTGAGATAAGTACACAAAAGAGCTT, the binding signal (log2 normalized intensity) was -1.4.
In the case of GCTGTGCCTGAATGCAGGGAGCAGAGTCCC, the binding signal (log2 normalized intensity) is reported as 0.42.
Sequence GTCTCCAGGCAAACTACAGTTTCTGTTTTC has a binding signal (log2 normalized intensity) of -0.341.
For ATCTTACTTTGAGGTGTTCTCTGGGGTTAG, the binding signal (log2 normalized intensity) was 2.03.
With GGGTGACCAGTGGACCATGAGAAACATCCA the binding signal (log2 normalized intensity) was -1.21.
For ACTGAAAGCTATCCCTCCATATTGCAGACA, the binding signal (log2 normalized intensity) was -0.946.
TTCAGCTTATAAATCTTCAACTGGAGGATA was tested, and the binding signal (log2 normalized intensity) was 0.00305.
Sequence CTACAGGGTATGAATTTAACCTTTGCTCTC has a binding signal (log2 normalized intensity) of 7.57.
With CTGCCTCCAGCTGTTGGTGACTGACCCTGA the binding signal (log2 normalized intensity) was 3.92.
GAGGCAGGATGACTGCTTGAGTCCAGGAGT was tested, and the binding signal (log2 normalized intensity) was -0.182.
TGGTACTGGACATGGTCTAAGAAAAGCAGG was tested, and the binding signal (log2 normalized intensity) was -1.25.
ATTTTGGGGCTGTATTTACATGGATTAGTC gave a binding signal (log2 normalized intensity) of 1.41.
ACATGTCATTGGCAGAAGGTGGAACAGTCA showed a binding signal (log2 normalized intensity) of 0.54.
In the case of AAGGCTCTCTGTTGACCACCTGCCCCAGGA, the binding signal (log2 normalized intensity) is reported as 1.54.
With AGATTCCAGAGGGAGGGAGGGTGGAGGAAC the binding signal (log2 normalized intensity) was -1.39.
AGTTTTTGCCCTTAAGCAGCATGTAGTTTA was tested, and the binding signal (log2 normalized intensity) was 0.895.
TCTTGGAGAGAAAAAATCAGAGAGCAAAGG was tested, and the binding signal (log2 normalized intensity) was 2.24.
With AGGAACAGGCCCCAGGGACTTTGGCCTTAC the binding signal (log2 normalized intensity) was 5.97.
CTAAGCTTGTAGACCAAGGAGGCCTCTTCC showed a binding signal (log2 normalized intensity) of -1.31.
Sequence GTCTCCTTTCAAGGCAGATTTCTGTCTTTG has a binding signal (log2 normalized intensity) of 0.348.
TATCAGTGTTGACCTCTGGACCTCATCTTC showed a binding signal (log2 normalized intensity) of 6.23.
For ACGTGCAGCAATAGGTCAGAGGACACCCGG, the binding signal (log2 normalized intensity) was -1.09.
Sequence AGACTGCCATTCCAGAAGTAGGATGGGGAG has a binding signal (log2 normalized intensity) of -1.27.
AAGGGTCAATGTGATCAGGTGTGGGCATTA was tested, and the binding signal (log2 normalized intensity) was 1.3.
CCAGGCAATCAGCCTTAGGTATGCCCCATG was tested, and the binding signal (log2 normalized intensity) was 0.86.
In the case of TCCCCCAACCCCACCTTCATTCTTCATGGG, the binding signal (log2 normalized intensity) is reported as 3.29.
AGAGCAAAGGTGATCTGCTGGAATGAAGAC gave a binding signal (log2 normalized intensity) of 0.237.
ACCCAGAGAATGCTAGACAAGGGAATTACT showed a binding signal (log2 normalized intensity) of -1.31.
GCTTTCTATTCAGACCTTCAACTATTTGGA was tested, and the binding signal (log2 normalized intensity) was 1.22.
AACTTCTCACCTTCAGATGCCATGTCTAAA was tested, and the binding signal (log2 normalized intensity) was 0.377.
Sequence TGCAATGCGGAATGACATTCAGCAACTGGG has a binding signal (log2 normalized intensity) of -1.38.
Work on AGCTTGAATCACTCACTGACCTCTTTTGGA yielded a binding signal (log2 normalized intensity) of 3.2.
For CAGAGAGGTCAGCAAATGTGGACACTTTGA, the binding signal (log2 normalized intensity) was 1.94.
AAATGAAGTGGTATCCTGCAGTCAGTCTGA gave a binding signal (log2 normalized intensity) of -0.508.
TCTCACCAGACCAAGAGCTTAACCTTTGCC gave a binding signal (log2 normalized intensity) of 3.84.
Work on ATGATAACCCCCGTCACTGCAAGGCAAACA yielded a binding signal (log2 normalized intensity) of 3.78.
Work on CCTAAGCCTTATTATCTGCTTTTATGACCT yielded a binding signal (log2 normalized intensity) of 3.51.
AACTATGCAGTGTCCATGGTGACCATGTGA showed a binding signal (log2 normalized intensity) of 1.71.
For AAATATGTTCCACCCAGGGTGGCAGGCTCT, the binding signal (log2 normalized intensity) was -0.847.
For CTCAGAGCATATGTTGACCCGAGTGCCCTT, the binding signal (log2 normalized intensity) was 5.21.
In the case of CTGTTTGACCAAAGCTACTCATCATGAACT, the binding signal (log2 normalized intensity) is reported as 0.948.
Sequence ATTTGGCCACATCCTGTCTCCTTTAACCTT has a binding signal (log2 normalized intensity) of 2.34.
In the case of TCACAGAGCAGAGAAAATTCTAGATAACTC, the binding signal (log2 normalized intensity) is reported as -1.44.
AGGACTCAATGATACCATCAGATACCTACT showed a binding signal (log2 normalized intensity) of -1.34.
GGTTTATTTTTATCTGTTTATTTTGCAATT showed a binding signal (log2 normalized intensity) of 1.33.
Sequence ACACCGTCCAGAGGCTCCAAAGGACACTCC has a binding signal (log2 normalized intensity) of -1.28.
AGGGAGGCCTAGACACAGACTCAAGTGAGG was tested, and the binding signal (log2 normalized intensity) was -1.31.
With ACACAGGCGACCTTCGCTCGGCTCGCTCTC the binding signal (log2 normalized intensity) was 2.9.
For ATGGCTGAGCTGTAAGGACATAAGCACTGA, the binding signal (log2 normalized intensity) was -1.35.
For GGAGGAGACAGCTACGGAATGCTTCCTGGA, the binding signal (log2 normalized intensity) was -1.42.
Sequence GTCTCAAAGTTCACCACTTTTGCAATGTTT has a binding signal (log2 normalized intensity) of 1.92.
TGCTCGGAACACGAGGTGAGAGGCGGAACA showed a binding signal (log2 normalized intensity) of 0.629.
For GTAAAGGTGGTTTGGGTAATAACATGTAAT, the binding signal (log2 normalized intensity) was 1.35.
Work on GGGTGCCTGATAATGACTCTTGAACCACAG yielded a binding signal (log2 normalized intensity) of 1.58.

Source: paper PMC10726135
